Measured values published in PubChem BioAssay AID256 (DTP/NCI, 2004).
Further values from the same series stand in other lists. Toxic doses and inconclusive results are not listed. The calls were made as follows: active = survival T/C of 150% or more; inactive = T/C below 125% in these data.

Test system: CD2F1 mice, L1210 leukemia ip, survival T/C
Test: NCI In Vivo Anticancer Drug Screen. Data for tumor model L1210 Leukemia (intraperitoneal) in CD2F1 (CDF1) mice
Conditions: higher = longer survival
Procedure: The antitumor activity of compounds was measured in mice bearing transplantable tumors. Survival or tumor size were measured and the results are expressed as the measurement made in the treated group (T) divided by the measurement made in the vehicle treated control group (C). The tumor model used in this assay is L1210 Leukemia (intraperitoneal) in CD2F1 (CDF1) mice

Measured: T/C

NC(=O)c1csc(C2OC(CO)C(O)C2O)n1 (stereo not given)
inactive: endpoint: median survival time, dose: 46.88 mg/kg/injection, schedule: Q01DX005 (ip), vehicle: water 105 % of control | endpoint: median survival time, dose: 187.5 mg/kg/injection, schedule: Q01DX005 (ip), vehicle: water 108 % of control

CN(C)/N=N/c1nc[nH]c1C(N)=O
inactive: endpoint: mean survival time, dose: 6.25 mg/kg/injection, schedule: Q03HX024 (ip), vehicle: steriod suspending solution 111 % of control | endpoint: mean survival time, dose: 12.5 mg/kg/injection, schedule: Q03HX024 (oral), vehicle: steriod suspending solution 111 % of control | endpoint: mean survival time, dose: 18.75 mg/kg/injection, schedule: Q01DX009 (ip), vehicle: Klucel (hydroxypropylcellulose) (HPC) 112 % of control | endpoint: mean survival time, dose: 25.0 mg/kg/injection, schedule: Q03HX016 (ip), vehicle: steriod suspending solution 112 % of control | endpoint: mean survival time, dose: 50.0 mg/kg/injection, schedule: Q04DX003 (ip), vehicle: other 111 % of control | endpoint: mean survival time, dose: 200.0 mg/kg/injection, schedule: Q08DX002 (ip), vehicle: steriod suspending solution 112 % of control | endpoint: median survival time, dose: 14.8 mg/kg/injection, schedule: Q03HX008 (ip), vehicle: Klucel (hydroxypropylcellulose) (HPC) 112 % of control | endpoint: median survival time, dose: 400.0 mg/kg/injection, schedule: Q01DX001 (ip), vehicle: Klucel (hydroxypropylcellulose) (HPC) 112 % of control
